Test results taken from the supplement of paper PMC10126150.
Sequences with one replicate were seen in a single cluster, so their values are uncertain.

System: ATP
Test: switch fluorescence ratio, 500 uM ATP over buffer (Cy3 cluster intensity, sum of 5 cycles each) (fold (ratio)); higher = stronger signal-on switching upon ATP binding; sequences stand for … in TCGTCGGCAGCGTCAGATGTGTATAAGAGACAGTTTTTTTTTTTTTTTTTTTTTTTTT…TC
Details: aptamer strand: ATP DNA aptamer (quencher-CACCTGGGGGAGTATTGCGGAGGAAGG + anchor), 100 nM annealed; ATP concentration: 500 uM; one replicate
In short: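 Between each of five buffer/ATP cycles, the flow-cell was stripped with NaOH and re-annealed. Each cycle imaged Cy3-labelled switching-strand clusters, annealed to 100 nM quencher-labelled ATP aptamer on a modified Illumina MiSeq flow-cell, first in selection buffer and then after 15 min with 500 uM ATP at 22 °C. The fluorescence ratio is summed target-cycle over summed buffer-cycle Cy3 intensity per cluster, averaged per switch-domain sequence, with clusters outside 100-1000 RFU excluded.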
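Also: ATP exposure 15 min at 22 °C before imaging.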

Row | Sequence | switch fluorescence ratio
1 | GCCTATGGGG | 1.01
2 | TACTTTTGTT | 1.02
3 | GTGCAACTAT | 0.962
4 | GCCGGTTTGC | 0.982
5 | GTTAGAAGAG | 0.987
6 | TGAATTTCGT | 1.01
7 | CCATGTAGGC | 1.03
8 | CATGGCGCGG | 1
9 | GCCGACTGGG | 0.996
10 | CAACTGCCAG | 1.05
11 | AACAAAGCCT | 1.31
12 | TAACGTGTCC | 1.06
13 | GATAAGACTA | 0.994
14 | TTACCCCACG | 1.55
15 | TTAGAAGGAA | 0.969
16 | ACTGGCGGAC | 1.06
17 | AAGCTATACT | 3.99
18 | ATTGAAAATG | 1.03
19 | GTCGGAGTGA | 1.01
20 | GCATGTTGTA | 1.01
21 | TCGGTTTCGT | 0.956
22 | CAAGTGGACT | 1.01
23 | TTCGTCACGC | 1.03
24 | AGTTTCGCCA | 0.989
25 | CGAATTGTTA | 0.956
26 | CCTGCTGGGA | 1.01

Row | Sequence | switch fluorescence ratio
27 | AAAGTGTAAC | 1
28 | CGCTTCGGTC | 1.09
29 | CAAGGTAGTT | 1.01
30 | AACGCGTATT | 1.05
31 | GTCACAGGGT | 0.998
32 | CCTTTGTGAG | 0.971
33 | GACAAGAGTG | 1
34 | TTCGGATTGT | 1.02
35 | CAATGAGCGA | 1.03
36 | TATTGGCCCC | 0.997
37 | TACCAGATCA | 0.991
38 | TGGAGTTCGG | 0.985
39 | CCAGGGGTT | 1.68
40 | CTAATCGTAA | 1.15
41 | TTAAGTCGTA | 0.949
42 | TTGTTATCTG | 1.02
43 | AATGCTCCCG | 1.58
44 | TAAAACCGCG | 1.04
45 | CGTGTAAAAA | 0.961
46 | TAGAACTTG | 0.977
47 | ATGATCTCAC | 0.986
48 | GTGGTCGTGG | 1
49 | TCTCAGTGGT | 1.02
50 | CCTAACGATC | 1.14
51 | TGACTACCAG | 1.07
52 | AAGGAAGAGT | 1.05

Row | Sequence | switch fluorescence ratio
53 | GCGGGGCATG | 0.944
54 | CCAACGACAT | 2.09
55 | TATCAGCTTC | 1.03
56 | CACGGTAGGG | 1
57 | TGCGAGTAGG | 1.05
58 | CATAGTGAGA | 0.981
59 | GGTAGCCTGT | 1.04
60 | CCATTTTGAG | 1
61 | AGGTAAATCG | 1.01
62 | CATATGAGCG | 1.03
63 | CGCTCGGGGG | 1.04
64 | CTAGTGGAGT | 1.04
65 | GCGTACTGCT | 0.973
66 | TAGTCTCAGG | 1.02
67 | CCAAGGAAG | 1.01
68 | TAATAGTAT | 0.992
69 | CCGAGTGAAT | 1.99
70 | TTCATGCATA | 1.05
71 | CCTGTAGTCA | 1.02
72 | TTGAGTCTGC | 1.05
73 | CAAGGGATGG | 1.05
74 | GTCACCCTTG | 1.01
75 | TGCACAATTG | 1.01
76 | TACGCAGCTC | 3.96
77 | CAGGGCGCTG | 1
78 | AGACCTCGGA | 1.04

Row | Sequence | switch fluorescence ratio
79 | TTGTAAGTCA | 1.01
80 | AATGTACCAG | 1.05
81 | GTAGTGGAGC | 0.971
82 | GGGCAAGACC | 0.934
83 | AAAGTTTTAG | 1.03
84 | ACAACTTTAT | 1.01
85 | CGGGTCGCAA | 1.32
86 | GATATGGCGC | 0.932
87 | AGGTATTAA | 1.02
88 | TGAGATGATC | 1.1
89 | CAGTCCTCCC | 1.49
90 | TGATTTACGT | 1.04
91 | GCAAGCTCTC | 1.76
92 | GTATGTCGCT | 0.999
93 | GGGCTTTCA | 0.969
94 | TGCCCTTCTT | 0.949
95 | ACAAAAGTGG | 1.02
96 | TTAAAGCGTA | 1.04
97 | TAGGGTCGAG | 0.968
98 | GGGTTGGGCA | 1.01
99 | AGGGACCTCG | 0.978
100 | ATCGTCCTGT | 0.982
101 | AAAGCCAGCT | 1.03
102 | GGAATAAGTC | 1.03
103 | TTTTCATATT | 1.03
104 | AAACTGTACC | 1.56

Row | Sequence | switch fluorescence ratio
105 | AATATCGCTA | 1.08
106 | CTAACGGCAG | 0.993
107 | TAAGGTTTCC | 1.02
108 | GGTCCTACAC | 1.11
109 | AACCCGAAAA | 1.11
110 | TTATGATCTC | 1.04
111 | GCAATAGTGC | 1.69
112 | AAATGTACGT | 1.01
113 | TCGGTTGCTT | 0.938
114 | GGTTCTCAT | 1.01
115 | TACGTCCGCT | 1.35
116 | GAGGCTAGGA | 1.01
117 | GTGAGGCCCG | 1.03
118 | GTCCCCCCTT | 1.05
119 | CATTATAGAG | 0.959
120 | CCAATTAGGG | 0.967
121 | TCTAAGTGCT | 0.973
122 | GGTCAGGATG | 1.08
123 | CTAGGCGCTC | 1.02
124 | ATCTGCCATG | 1.02
125 | CGCCATGTTA | 1.02
126 | TTGACCTCGG | 1.01
127 | CAGGCTGCA | 1.01
128 | GCGGACTACT | 1.05
129 | ACCTAGAACT | 1.01
130 | TGTGTTTTGC | 1.04

Row | Sequence | switch fluorescence ratio
131 | AGAAAGAGTA | 1.01
132 | GGACCATAGC | 0.997
133 | CTCAGGTAAG | 0.981
134 | CGGTAATGAG | 1.01
135 | CTTGCGATGG | 1.34
136 | GAACGGCTC | 0.996
137 | GTGGCTCTAG | 0.966
138 | GTAGAAGTTA | 0.958
139 | CCATATCGTC | 1.07
140 | ACTCTTTTT | 1.01
141 | TAAGCCTGAG | 1.22
142 | TAACGGTGCG | 1.12
143 | ACAGGCTCCA | 0.966
144 | CATGTTGAA | 0.955
145 | ACAGCATCCC | 1.23
146 | CCGTGGGGCT | 1.04
147 | TCCCGTCGGT | 1.02
148 | TAGAGCACTC | 0.958
149 | CGCTTCTTAA | 0.997
150 | CCCTTAAGGC | 1
151 | GCACTCAGGT | 1.13
152 | GTCGCGGTCG | 0.997
153 | CTATAAGAGG | 1.04
154 | GATGGAAGCA | 1.01
155 | AGAAAACGG | 1.08
156 | ACCCTACCCG | 1.26

Row | Sequence | switch fluorescence ratio
157 | TGGGTCTGG | 1
158 | TAAATTATCG | 1.03
159 | AGTTCGTAGC | 1.01
160 | ATCTCTCACG | 1.02
161 | GAGGACTGG | 0.973
162 | ACAGCGGAAG | 1.04
163 | CTTAGGGCAG | 0.936
164 | GACTACCGAA | 1.05
165 | CTTTCGCAGA | 1.21
166 | ACGCGAAAGG | 1.04
167 | CATAACGTAT | 1.01
168 | TGTTTTCTGC | 1.01
169 | AGATCGGGT | 0.97
170 | TGAGTATATT | 1.01
171 | ACTGAGCTGT | 1.03
172 | TTCTGGGATA | 1.01
173 | CTGCTCAAAG | 0.969
174 | ACCTTTGTAT | 1.01
175 | ATTACCTAT | 1.03
176 | ATGTCAGCCC | 0.946
177 | ATACGAAAGC | 1.21
178 | GCCGATGTGT | 1
179 | CAGCTGTCGA | 1.03
180 | TTCTCTATCC | 1
181 | GATCGGTAGG | 0.979
182 | AGGTGGTATT | 0.97

Row | Sequence | switch fluorescence ratio
183 | CAATATGAGG | 0.985
184 | TACCTCGGGA | 1.01
185 | GGATCTGTG | 0.997
186 | TTATATCCAC | 1.11
187 | CGGGGTATCA | 0.955
188 | TACGGCGTAT | 1.01
189 | GCTTTGAAGA | 0.992
190 | ATAAATTAGA | 0.955
191 | TCCGGGTACG | 1.27
192 | GTCATTGG | 1.05
193 | CCTCTCCCGG | 2.24
194 | TGGCGTGGAC | 0.992
195 | ATACGTGCG | 0.973
196 | ATATCACAAC | 1.02
197 | CTTGTTCAAT | 0.944
198 | ATAAGGCGTA | 1.06
199 | ATAAATGGTC | 1.04
200 | ATGACTGATT | 0.987
201 | CATGGCCTAG | 1
